{"source": "the supplement of paper PMC8728848", "test_in_all_cases": "glycan array binding signal (z-score within array); higher = stronger binding", "conditions_in_all_cases": "glycan notation: IUPAC condensed, linker removed", "key": {"[1]": {"biological_target": "Fuc(a1-2)Gal(b1-4)[Fuc(a1-3)]GlcNAc", "procedure,_shortened": "(§1)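 From the Consortium for Functional Glycomics database, 3228 arrays were curated, keeping only those whose protein sequence was available. Binding is given as a within-array Z-score averaged across arrays sharing a protein sequence and across linkers. Negative Z-scores can be read as non-binding.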"}, "[2]": {"biological_target": "Fuc(a1-2)[GalNAc(a1-3)]Gal", "procedure,_shortened": "as §1"}, "[3]": {"biological_target": "Fuc(a1-2)[GalNAc(a1-4)]Gal(b1-4)GlcNAc", "procedure,_shortened": "as §1"}, "[4]": {"biological_target": "Fuc(a1-3)[Neu5Ac(a2-3)]Gal(b1-4)GlcNAc(b1-3)GalNAc", "procedure,_shortened": "as §1"}, "[5]": {"biological_target": "Gal(a1-3)Gal(b1-4)GlcNAc", "procedure,_shortened": "as §1"}, "[6]": {"biological_target": "Gal(a1-4)Gal(b1-4)Glc", "procedure,_shortened": "as §1"}, "[7]": {"biological_target": "Gal(b1-3)Gal(b1-4)GlcNAc", "procedure,_shortened": "as §1"}, "[8]": {"biological_target": "Gal(b1-3)GalNAc(b1-4)[Neu5Ac(a2-3)]Gal(b1-4)Glc", "procedure,_shortened": "as §1"}, "[9]": {"biological_target": "Gal(b1-4)GlcNAc(b1-2)Man(a1-3)[Gal(b1-4)GlcNAc(b1-2)Man(a1-6)]Man(b1-4)GlcNAc(b1-4)GlcNAc", "procedure,_shortened": "as §1"}, "[10]": {"biological_target": "Gal(b1-4)GlcNAc(b1-3)[Gal(b1-4)GlcNAc(b1-6)]Gal(b1-4)GlcNAc", "procedure,_shortened": "as §1"}, "[11]": {"biological_target": "Gal3S6S(b1-4)GlcNAc6S", "procedure,_shortened": "as §1"}, "[12]": {"biological_target": "Gal6S(b1-4)GlcNAc", "procedure,_shortened": "as §1"}, "[13]": {"biological_target": "GalNAc(b1-3)Gal(a1-4)Gal(b1-4)GlcNAc", "procedure,_shortened": "as §1"}, "[14]": {"biological_target": "Glc(a1-4)Glc", "procedure,_shortened": "as §1"}, "[15]": {"biological_target": "GlcNAc(b1-3)Gal(b1-3)GalNAc", "procedure,_shortened": "as §1"}, "[16]": {"biological_target": "GlcNAc(b1-6)Gal(b1-4)GlcNAc", "procedure,_shortened": "as §1"}, "[17]": {"biological_target": "Man(a1-2)Man(a1-3)[Man(a1-2)Man(a1-6)]Man", "procedure,_shortened": "as §1"}, "[18]": {"biological_target": "Man(a1-2)Man(a1-3)[Man(a1-2)Man(a1-6)]Man(a1-6)[Man(a1-2)Man(a1-2)Man(a1-3)]Man", "procedure,_shortened": "as §1"}, "[19]": {"biological_target": "Man(a1-3)[Man(a1-6)]Man(a1-6)[Man(a1-3)]Man", "procedure,_shortened": "as §1"}, "[20]": {"biological_target": "Neu5Ac(a2-3)Gal(b1-3)[Neu5Ac(a2-3)Gal(b1-4)]GlcNAc", "procedure,_shortened": "as §1"}, "[21]": {"biological_target": "Neu5Ac(a2-3)Gal(b1-4)Glc", "procedure,_shortened": "as §1"}, "[22]": {"biological_target": "Neu5Ac(a2-3)Gal(b1-4)GlcNAc(b1-3)Gal(b1-4)GlcNAc", "procedure,_shortened": "as §1"}, "[23]": {"biological_target": "Neu5Ac(a2-3)Gal(b1-4)GlcNAc(b1-6)[Neu5Ac(a2-3)Gal(b1-3)]GalNAc", "procedure,_shortened": "as §1"}, "[24]": {"biological_target": "Neu5Ac(a2-3)Gal6S(b1-4)[Fuc(a1-3)]GlcNAc", "procedure,_shortened": "as §1"}, "[25]": {"biological_target": "Neu5Ac(a2-8)Neu5Ac", "procedure,_shortened": "as §1"}, "[26]": {"biological_target": "Neu5Ac(a2-8)Neu5Ac(a2-8)Neu5Ac(a2-3)Gal(b1-4)Glc", "procedure,_shortened": "as §1"}, "[27]": {"biological_target": "Neu5Gc(a2-3)Gal(b1-4)Glc", "procedure,_shortened": "as §1"}, "[28]": {"biological_target": "Neu5Gc(a2-3)Gal(b1-4)[Fuc(a1-3)]GlcNAc", "procedure,_shortened": "as §1"}}, "note": "Shown is part of a subset that was picked to be rich in the strongest signals.", "data": [{"binder": "Langerin (Homo sapiens), CLC4K_HUMAN (protein) LDYPRFMGTISDVKTNVQLLKGRVDNISTLDSEIKKNSDGMEAAGVQIQMVNESLGYVRSQFLKLKTSVEKANAQIQILTRSWEEVSTLNAQIPELKSDLEKASALNTKIRALQGSLENMSKLLKRQNDILQVVSQGWKYFKGNFYYFSLIPKTWYSAEQFCVSRNSHLTSVTSESEQEFLYKTAGGLIYWIGLTKAGMEGDWSWVDDTPFNKVQSARFWIPGEPNNAGNNEHCGNIKAPSLQAWNDAPCDKTFLFICKRPYVPSEPV[in this place about 200 residues]", "values": [{"measurement": "glycan array binding signal (z-score)", "setting": "[1]", "value": 2.07}, {"measurement": "glycan array binding signal (z-score)", "setting": "[2]", "value": 1.84}, {"measurement": "glycan array binding signal (z-score)", "setting": "[3]", "value": -0.094}, {"measurement": "glycan array binding signal (z-score)", "setting": "[4]", "value": 2.05}, {"measurement": "glycan array binding signal (z-score)", "setting": "[5]", "value": -0.045}, {"measurement": "glycan array binding signal (z-score)", "setting": "[6]", "value": -0.359}, {"measurement": "glycan array binding signal (z-score)", "setting": "[7]", "value": -0.473}, {"measurement": "glycan array binding signal (z-score)", "setting": "[8]", "value": -0.368}, {"measurement": "glycan array binding signal (z-score)", "setting": "[9]", "value": -0.39}, {"measurement": "glycan array binding signal (z-score)", "setting": "[10]", "value": -0.448}, {"measurement": "glycan array binding signal (z-score)", "setting": "[11]", "value": -0.223}, {"measurement": "glycan array binding signal (z-score)", "setting": "[12]", "value": 2.27}, {"measurement": "glycan array binding signal (z-score)", "setting": "[13]", "value": -0.349}, {"measurement": "glycan array binding signal (z-score)", "setting": "[14]", "value": 5.09}, {"measurement": "glycan array binding signal (z-score)", "setting": "[15]", "value": 2.11}, {"measurement": "glycan array binding signal (z-score)", "setting": "[16]", "value": 0.433}, {"measurement": "glycan array binding signal (z-score)", "setting": "[17]", "value": 0.856}, {"measurement": "glycan array binding signal (z-score)", "setting": "[18]", "value": 2.17}, {"measurement": "glycan array binding signal (z-score)", "setting": "[19]", "value": 0.304}, {"measurement": "glycan array binding signal (z-score)", "setting": "[20]", "value": -0.408}, {"measurement": "glycan array binding signal (z-score)", "setting": "[21]", "value": -0.344}, {"measurement": "glycan array binding signal (z-score)", "setting": "[22]", "value": -0.401}, {"measurement": "glycan array binding signal (z-score)", "setting": "[23]", "value": -0.39}, {"measurement": "glycan array binding signal (z-score)", "setting": "[24]", "value": 1.36}, {"measurement": "glycan array binding signal (z-score)", "setting": "[25]", "value": -0.315}, {"measurement": "glycan array binding signal (z-score)", "setting": "[26]", "value": -0.425}, {"measurement": "glycan array binding signal (z-score)", "setting": "[27]", "value": -0.393}, {"measurement": "glycan array binding signal (z-score)", "setting": "[28]", "value": -0.444}]}]}
